Assay results: the supplement of paper PMC11417369
The list shows a part of the results.

test system: PfSIP2 AP2 domain 1 (GST-tagged); test: gcPBM binding intensity (ln(normalized median fluorescence intensity)); higher = stronger DNA binding
In short: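 In this array assay, P. falciparum DNA-binding domains with a GST tag, expressed in E. coli, were applied for 1 h to primer-extended double-stranded 36-bp intergenic genomic probes and negative controls on an Agilent 4 × 180k array. Bound protein was visualised with Alexa488 anti-GST antibody at 488 nm. Binding intensity is the highest Masliner-normalised natural-log median intensity across replicate spots of either probe orientation.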

| Sequence | gcPBM binding intensity (ln) |
| --- | --- |
| AATACATTGTCAAATTGTACAAATTATAGAACTATT [XGTACX_site2222] | 6.97 |
| CCATAAAAAGGATACACACACACACCCACATATATA [CACACA_site903] | 7.18 |
| TGTTTTTATATATATGCACACAATGTACAAGTATAC [CACACA_site3529] | 7.6 |
| TTATATATAAACATAAAAAGAAATATATTATGTATA [CACACA_negctrl_site667] | 6.85 |
| AAAGTCTCATTAAAATGTACAAAATTTTCAGCTGTA [XGTACX_site6296] | 6.71 |
| TATGTGAATATAATCACACACAATACGGAAACCCAC [CACACA_site2725] | 7.37 |
| TAATTTTTAATTGTAGCATGCAGTATTTTTAAATAT [TGCATGCA_site140] | 7.06 |
| ATATTTAATGTTAATTGTACATATTATATATATATA [XGTACX_site6095] | 9.06 |
| GATTATACAAAATATACACACGTGTAGACAAATATT [CACACA_site4785] | 7.15 |
| ATAATATTATTATAATGTACATATTTCGATATAAAT [XGTACX_site8808] | 7.1 |
| AAAAAAATATATATTACACACATATATACCTATATA [CACACA_site5688] | 7.01 |
| ATATATATTAATAGGTGTACATATAAAGTGTTATGT [XGTACX_site5464] | 7.34 |
| TAATAATGCAACCTCTGTACACAACATTATATCCAT [XGTACX_site7596] | 7.31 |
| AAAAAAAAATTTTTAAAATTTAGAAAATTTAAAAAA [GTGCAC_negctrl_site649] | 6.64 |
| TATATATAAGCGTGTACACATTCTGAGTGTTGTATA [CACACA_site4502] | 7.22 |
| ATTGTCTTCTCATATACACACTTTTATGACTATCTT [CACACA_site5696] | 7.24 |
| TGTGTAATTATATATAAGGAGAAAGAATTCATTTTT [CACACA_negctrl_site670] | 6.77 |
| TATTGAAGTTATAAAGTGCAGATAAATATGAGTTAT [GTGCAC_site9945] | 7.81 |
| ACAAAAAATAATCAAAATGTATATATATAATATAAT [XGTACX_negctrl_site593] | 7.08 |
| AAATGCCATATAATTTTTCTTAAACATAATTGTATA [CACACA_negctrl_site1665] | 6.77 |
| AACAAATAAACAAAATTGGAAAATAAAAATATCAAA [CACACA_negctrl_site1125] | 6.64 |
| TCGTATATGGATTTTGCACACAATTTTAATTTAAAT [CACACA_site4635] | 7.51 |

| Sequence | gcPBM binding intensity (ln) |
| --- | --- |
| ATGATTTGTCTGAAATGTACATATATATATATATAT [XGTACX_site5247] | 9.47 |
| TTTTTTTTTTTTTTAATTAATTACCTTTGAATGTGT [CACACA_negctrl_site393] | 6.92 |
| TAATAATTTTATAAAGTGCATAAAAATAAAAATTTT | 8.89 |
| ATTATTTTTTTATGTTGTACATAATATTTTTTAAAA [XGTACX_site1666] | 7.27 |
| ATATATATGGATGGACGTACGTATGTATGTAATTTC [XGTACX_site4135] | 7.21 |
| TTCCAACATTGTTTTTGTACATAATTAACTGTTATT [XGTACX_site5224] | 7.27 |
| CTTAAAAATAACTGCACACAAAAATAAATACCTTAT [CACACA_site2793] | 7.18 |
| TAATATTTATAAAATAGTACACAGAAAAAGCATTTT [XGTACX_site8948] | 6.97 |
| GAAAAAATATATAAATGTACATATAATAATATCATA [XGTACX_site6788] | 6.95 |
| ATATATATTTTATTATGTACATATAAATATTACACA [XGTACX_site4062] | 7.18 |
| ATAATAAGGTTAAGCACACATATTACAGATATAACT [CACACA_site5791] | 6.9 |
| AAATATTATGTGGCAAGTACATAAAGAAAATGCTTA [XGTACX_site3356] | 6.84 |
| AATAATAATAATAATAGTACATATTATGAATATGAT [XGTACX_site5730] | 7.11 |
| GATCTACATGAAAGGACACACAAATATATATATATA [CACACA_site84] | 9.43 |
| ATAAATATGGAGCACACACACATAAACATACCTATA [CACACA_site6336] | 7.18 |
| TTAAAAATGATTGAATGTACAGATTAATATAATTTT [XGTACX_site7394] | 6.88 |
| TAATTTTTGAAACACACACACATATATATATATATA [CACACA_site94] | 9.2 |
| TTTAAATATATATTTAGTACTTATTCTTAAAATTTT [XGTACX_site624] | 7.15 |
| TTTTTTTTTTTTTGTGCATGTAGATTTATTGTTATA [TGCATGCA_site582] | 7.52 |
| AAAAAAGAATAGCACACACACATATATAAATATAAA [CACACA_site4518] | 6.96 |
| GTAGAGGATTAAGAATGTACACATAAATACATATTT [XGTACX_site8874] | 7.16 |
| AATTATACATACATATATATATTTATATATATATAT [GTGCAC_negctrl_site462] | 8.91 |

| Sequence | gcPBM binding intensity (ln) |
| --- | --- |
| GTTACATACAGATACACACACATATATATATATATA [CACACA_site4652] | 9.57 |
| TTATATCCCGTCCTTTATTAAAAAAATTTTTTTTCT [TGCATGCA_negctrl_site582] | 7.03 |
| ATTAAAAAAAAAAGTATACACACTTCTTAATGTCAA [CACACA_site1244] | 6.7 |
| ATGGGTTGTTCAAATAGTACATATGTAGCCCACCAT [XGTACX_site3735] | 7.06 |
| TGCAACAAAATAAACACACACACACTAACACAAAAA [CACACA_site7567] | 7.07 |
| TTTAAAAATAAAAGTACACACATAAACATATTGCAC [CACACA_site6784] | 8.8 |
| TTTTCATTTGAAAGTCGTACAAGTTCGAAAAAAGGA [XGTACX_site6840] | 7.42 |
| CTTAAAAAAACCTTAACACACATAAACTATAATTTA [CACACA_site3055] | 6.83 |
| ATATTATATATATGTGCACACAAAAGATATATATAT [CACACA_site2125] | 9.12 |
| ATAAGCAATAAAAAAACATGCATATTATTATCAACA [TGCATGCA_site1027] | 6.96 |
| ATCAAGCACGGACACACACACACACCCAGACCCCCA [CACACA_site4360] | 7.43 |
| AAGTTAACACAACAGGTGCAAGAAAAGTTTTTAATG | 9.98 |
| TCTTTAATATATAGTGCATGTAAATTTTACAATAAT [TGCATGCA_site242] | 9.82 |
| TATGGTATATACAACACACACACATATGTATATATA [CACACA_site927] | 7.14 |
| AGTTAATGTTTATGTACACACGGTGGGTATATATTT [CACACA_site5785] | 7.11 |
| ATATATATATATATATATATAATTTTTTTTGTTTTT [TGCATGCA_negctrl_site453] | 9.66 |
| GATATCAAAAAGATGGGTACATATATTTAAGTTCAT [XGTACX_site3822] | 6.97 |
| TATATTATTAATTAGGGTACAAAAAAAAAATTTTTT [XGTACX_site7762] | 6.95 |
| TAGGAAAAGAAAAGCACACACATAAATAGATATATA [CACACA_site6382] | 6.78 |
| TTAAATAGAAATAAGACTAACAATGAACCAAAAAAA [CACACA_negctrl_site991] | 6.97 |
| TTTTGAAAAAGTTGCACACAAAATTTAAAAAAAAAA [CACACA_site1632] | 7.35 |
| TGCACAAAATTATGCACACACCTAAAATTAATTTTT [CACACA_site5596] | 8.28 |

| Sequence | gcPBM binding intensity (ln) |
| --- | --- |
| GGCAATGATTTTAGGTGTACTTAAAAATCAAATTAA [XGTACX_site8587] | 7.18 |
| ATTCTAATCATATACACACCCATATATATATATATA [CACACA_site1774] | 9.34 |
| TAATTTCTTATGTGCTATCTTATATAGAATTAATTT [CACACA_negctrl_site1726] | 6.82 |
| TATAAAAAATAAAATACACACACATATATATATATA [CACACA_site8365] | 9.05 |
| AGCAGTCAGCAGGACAGTACACAGTAGCCAGGAAAT [XGTACX_site4877] | 6.82 |
| AAAAAAAAAATTTAGGTGCATACAAATAAATTATAT [GTGCAC_site9521] | 9.85 |
| TTATTCTAAAAAGGGTGTACACAAACGAATGGAAAA [XGTACX_site5662] | 7.86 |
| ATGGCTAAAAGTTGCACACACACAAAAAAAAAAAAA [CACACA_site3289] | 7.88 |
| TATATATTAATATGCACACACAAGAAGTAATTATAA [CACACA_site3193] | 8.06 |
| ATTATATAACAAAATAGTACATATATTTATTACATC [XGTACX_site336] | 6.99 |
| GGCATACACGGACACACACACACACCGACATATATA [CACACA_site4493] | 7.61 |
| TTTTTTTAACGGTGTGCACACAATATACAGAAAAAA [CACACA_site1415] | 9.16 |
| ATTATATATATTTATGCACACAAAATATATTATATA [CACACA_site9244] | 7.56 |
| TATATACATTTATATACACACCTATATTTATTTATA [CACACA_site7014] | 6.99 |
| CAACAATTTCGTCATACACACATTCAGAATCTATAT [CACACA_site7171] | 7.11 |
| TATATTGAAAATAAAACATGCAATCACTCATACATA [TGCATGCA_site248] | 6.76 |
| ATGTACCTATTTCATACACACACACCCACAAACAAA [CACACA_site8232] | 7.53 |
| TATACATTTATGTACACACACATATAGGTATATTTA [CACACA_site7408] | 7.17 |
| AAAATATAATATATTACACACATATATTTTATAAGT [CACACA_site668] | 6.79 |
| TATGTTGGTTCTTTTAGTACATAATTACTAAATGTA [XGTACX_site8616] | 7.09 |
| AAAACATACATATATACACACATATATATATATATA [CACACA_site1852] | 9.37 |
| CAAACTACAAAATTTCGTACGCATATATTTCAAGTA [XGTACX_site5154] | 6.9 |
